According to the supplement of paper PMC9433436:
± gives the standard deviation of the averaged measurements. The full ranking holds about 4,100 sequences; the median of “relative kcat/Km (krel) vs genomic leader AAAGAU” is about 1.7, and the highest 2% start at about 6.5. The entries are a selection whose mix differs from that of the whole data set.

Molecular target: T1, E. coli RNase P holoenzyme (M1 P RNA + rnpA protein) (UniProt P0A7Y8)
T1 sequence: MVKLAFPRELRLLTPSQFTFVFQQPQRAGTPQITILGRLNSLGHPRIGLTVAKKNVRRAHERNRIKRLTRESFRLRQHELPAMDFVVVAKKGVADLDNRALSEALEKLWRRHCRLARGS
Assay: relative kcat/Km (krel) vs genomic leader AAAGAU (relative (reference leader = 1)); higher = faster RNase P cleavage
Protocol: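 HTS-Kin: a pool of ptRNA-Met (21C construct) with all 4096 combinations of 5' leader nucleotides N(-6) to N(-1) was processed in vitro by E. coli RNase P (P RNA + rnpA/C5 protein) under multiple-turnover conditions at 37 C, pH 8, 17.5 mM MgCl2. Residual substrate was Illumina-sequenced at several fractions reacted, and relative kcat/Km (krel) was computed by internal competition kinetics, calibrated to the genomic leader (AAAGAU = 1). The listed hexamer is the varied N(-6)..N(-1) leader (DNA letters), and it sits between a fixed 5' stem-loop flank (GCAUGCACGAAAGUGCGUGCUAUGAA) and the mature tRNA-Met starting GGCUACGUAGCUCAGUUGG. Two technical replicates are averaged.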

[1] = fraction of substrate reacted: ~9-10% (9.79% repeat 1, 9.1% repeat 2)
[2] = fraction of substrate reacted: ~13-16% (15.68% repeat 1, 13.17% repeat 2)
[3] = fraction of substrate reacted: ~26-29% (28.66% repeat 1, 26.4% repeat 2)

Sequence	relative kcat/Km [1]	relative kcat/Km [2]	relative kcat/Km [3]
CAATCA	1.18 ± 1.1	1.03 ± 0.38	1.76 ± 0.06
CTACGC	1.71 ± 0.27	2.28 ± 0.12	3.27 ± 1.2
CGAACA		0.874 ± 0.36	1.44 ± 0.065
AAGCGC	2.63 ± 2.3	1.13 ± 0.26	1.5 ± 0.58
CCACCA	2.19 ± 1.3		1.33 ± 0.1
GAAACC	0.896 ± 0.47	0.359 ± 0.18	1.14 ± 0.22
TGTGTG			0.494 ± 0.45
CTTTAC	4.38 ± 1.7	4.59 ± 1.3	6.2 ± 1.9
CGCCGC	2.62 ± 0.84	3.479 ± 0.016	4.99 ± 2
ACGAGT	0.667 ± 0.11	0.638 ± 0.21	0.574 ± 0.3
CACATT	3.5 ± 1.3	4.74 ± 0.66	6.23 ± 2.3
AGCTGC	1.76 ± 0.18	2.22 ± 1	3.86 ± 1.9
TTGGTC			2.2 ± 2.2
CCACGC	2.46 ± 2	2.07 ± 0.11	2.44 ± 0.49
TTACCC	1.4 ± 1.3	1.78 ± 0.14	2.12 ± 0.43
CAGCCT	1.51 ± 0.2	1.59 ± 0.66	2.2 ± 1.4
GTTGTT	0.832 ± 0.53	0.86 ± 0.24	1.07 ± 0.92
GTGCTC	1.6 ± 0.97		0.741 ± 0.48
TCTAGT			2.43 ± 2.1
CTGCAG	1.07 ± 0.34		1.33 ± 0.64
CGATTT	2.8 ± 0.81	3.58 ± 1	4.49 ± 1.7
TTAAGA	1.95 ± 0.61	2.89 ± 0.47	3.88 ± 1.5

Sequence	relative kcat/Km [1]	relative kcat/Km [2]	relative kcat/Km [3]
ACCAGC	2.88 ± 1.2	2.54 ± 1.1	3.89 ± 1.2
CCCTTC	3.11 ± 1.4	3.36 ± 0.74	4.51 ± 1.3
CTTGAA	2.09 ± 1	2.45 ± 0.55	3.29 ± 0.76
TATGCA	1.91 ± 1.2	1.67 ± 0.33	1.82 ± 0.36
GGTTGC	1.34 ± 0.2	1.35 ± 0.84	2.35 ± 1.3
CGCGCC	2.69 ± 1	3.36 ± 1.3	4.04 ± 1.4
ATAGCA	1.33 ± 0.72	1.62 ± 0.75	1.8 ± 0.085
TGTATG			1.93 ± 0.25
CTCCCA	2.2 ± 0.056	2.68 ± 0.55	3.68 ± 1.6
CCCTGA	3.36 ± 1.1	3.2 ± 1.4	5.02 ± 1.9
TCATTC	3.33 ± 1.4	4.37 ± 0.72	5.98 ± 2.3
AGTTTG		0.698 ± 0.046	2.25 ± 0.49
TACCAC	3.48 ± 1.4	4.03 ± 1.6	
CGGAAC	0.957 ± 0.39	1.52 ± 0.49	1.43 ± 0.079
TGAGGG			0.433 ± 0.41
CATCAC	3.71 ± 1.1	4.5 ± 0.64	6.27 ± 2.6
ACCTCG			1.87 ± 0.58
AGCGGT			0.859 ± 0.087
TGGCAC			0.862 ± 0.38
GCCACG		0.41 ± 0.19	1.695 ± 0.0087
CACAGC	3.88 ± 1.2	4.31 ± 1.1	5.98 ± 2.7
GCGGCG	1.23 ± 0.73	0.211 ± 0.19	

Sequence	relative kcat/Km [1]	relative kcat/Km [2]	relative kcat/Km [3]
ACTTTA	1.56 ± 0.72	1.89 ± 0.44	2.18 ± 0.5
CGATCG			1.06 ± 0.34
CTTGCC	2.21 ± 1.8	1.76 ± 0.013	2.16 ± 0.2
GTTCAG		1.43 ± 0.25	3.25 ± 0.87
CAGTCG		0.568 ± 0.043	1.45 ± 0.42
CGGCAA		1.14 ± 0.063	0.649 ± 0.17
CAGATT	1.72 ± 0.68	2 ± 0.1	2.79 ± 0.81
TCTGAT	1.67 ± 1.6	1.47 ± 0.22	1.59 ± 0.62
AAGTTG		0.103 ± 0.023	0.926 ± 0.52
CAGAAT	2.85 ± 1.1	3.13 ± 0.42	4.72 ± 2.1
ATAGAT	2.26 ± 0.79	2.32 ± 0.19	2.5 ± 1.2
GCAGTC	1.5 ± 0.23	1.29 ± 0.15	1.228 ± 0.0023
GCCGGC		0.571 ± 0.045	0.606 ± 0.54
GCGTTT	1.84 ± 0.65	1.71 ± 0.26	2.21 ± 0.94
GTTTCG			1.76 ± 0.37
ACTCCT	1.44 ± 0.49	1.32 ± 0.32	1.71 ± 0.23
ACGGAT	1.67 ± 1.6		1.93 ± 1.6
CTCCAC	4.55 ± 1.9	5.88 ± 1.5	7.81 ± 3.1
TTATGG	0.845 ± 0.39	0.58 ± 0.55	1.11 ± 0.39
AGACTA	1.58 ± 0.15	1.67 ± 0.34	1.91 ± 0.59
AGGGCA		1.1 ± 0.99	1.14 ± 0.86
AGGAAA	0.893 ± 0.84	1.35 ± 0.19	1.54 ± 0.67

Sequence	relative kcat/Km [1]	relative kcat/Km [2]	relative kcat/Km [3]
GAGGTG			0.61 ± 0.57
CCGATT	1.46 ± 0.5		1.99 ± 0.2
AACTTC	3.37 ± 1.2	3.49 ± 0.17	4.33 ± 1.5
TCCACC	3.85 ± 0.9	4.79 ± 0.6	6.05 ± 2.2
TTGAAG	1.84 ± 1.3	0.928 ± 0.21	2.99 ± 1
CATGAT	1.51 ± 0.71	1.21 ± 0.065	1.64 ± 0.31
CATACC	1.81 ± 0.39	1.67 ± 0.36	2.34 ± 1.2
TGATTT	3.14 ± 0.87	3.7 ± 0.56	4.76 ± 1.8
ATATGC	2.55 ± 1.6	2.85 ± 0.41	4.67 ± 1.9
GTTAAA	1.82 ± 0.016	2.94 ± 0.51	3.99 ± 1.8
CAGGAC	1.68 ± 0.75	2.31 ± 0.13	2.09 ± 0.77
CTGAGT			0.378 ± 0.19
TTGCTC	1.61 ± 0.29	1.94 ± 0.51	2.18 ± 0.68
ATTGCA	2.08 ± 0.54	1.61 ± 0.49	2.04 ± 0.69
GCTGAC	1.36 ± 0.04	1.79 ± 1	1.68 ± 0.061
TCACCA	1.66 ± 1.2	1.02 ± 0.38	1.97 ± 0.4
AGAGGG			0.989 ± 0.85
TGAGCA	2.05 ± 0.85	1.32 ± 0.54	1.63 ± 0.16
ATGTCC	2.28 ± 0.33	2.34 ± 0.077	2.9 ± 0.86
TGCGCC	1.73 ± 0.81	1.37 ± 0.65	2.36 ± 1.1
CTCCAT	4.25 ± 0.86	5.67 ± 1.3	8.48 ± 4
TGGAAA	1.63 ± 1.1	0.838 ± 0.78	1.61 ± 0.29

Sequence	relative kcat/Km [1]	relative kcat/Km [2]	relative kcat/Km [3]
GGCCTC	1.28 ± 0.39	0.933 ± 0.5	1.94 ± 0.76
TACAGG			1.7 ± 0.63
CCACTA	2.04 ± 0.79	0.737 ± 0.36	1.25 ± 0.33
CGTATT	2.49 ± 0.91	3.75 ± 0.57	4.61 ± 1.8
TAAGCT	0.634 ± 0.17	1.15 ± 1.1	1.46 ± 0.35
TAAAGG			0.833 ± 0.34
GTGATG	2.12 ± 1.9		1.09 ± 0.41
TAGACC	1.49 ± 0.094	2.19 ± 0.16	2.67 ± 0.87
GCAGCA	1.21 ± 0.31	0.509 ± 0.46	0.85 ± 0.26
TTTTCA	2.11 ± 1.6	1.86 ± 0.42	2.97 ± 0.84
TATGCT	0.898 ± 0.54	1.14 ± 0.41	1.43 ± 0.56
TACGGT			3.36 ± 2.5
TTCAAA	4.87 ± 2.9		
GATCCA	1.34 ± 0.85	0.89 ± 0.35	1.72 ± 0.51
AAGCGA	1.73 ± 0.67	1.44 ± 1.2	2.34 ± 0.72
CATATT	1.98 ± 1.2	2.4 ± 0.37	3.79 ± 1.4
ATAGGC			1.49 ± 1.3
CGCTCC	3.25 ± 0.17	3.29 ± 0.4	4.58 ± 1.6
